Publication PMC4336329 (PLoS ONE, 2015)
The whole screen tested about 310,000 compounds, of which about 2,200 (0.71%) showed an effect of 50% or more. Effects have a minus sign here. The list shows a part of the results.

What follows are compounds tested against human ether-à-go-go-related gene (hERG) potassium channel (human, UniProt Q12809) (assay: primary screen, population patch clamp on CHO cells stably expressing hERG).
Chain of human ether-à-go-go-related gene (hERG) potassium channel (Q12809 whole entry, looked up): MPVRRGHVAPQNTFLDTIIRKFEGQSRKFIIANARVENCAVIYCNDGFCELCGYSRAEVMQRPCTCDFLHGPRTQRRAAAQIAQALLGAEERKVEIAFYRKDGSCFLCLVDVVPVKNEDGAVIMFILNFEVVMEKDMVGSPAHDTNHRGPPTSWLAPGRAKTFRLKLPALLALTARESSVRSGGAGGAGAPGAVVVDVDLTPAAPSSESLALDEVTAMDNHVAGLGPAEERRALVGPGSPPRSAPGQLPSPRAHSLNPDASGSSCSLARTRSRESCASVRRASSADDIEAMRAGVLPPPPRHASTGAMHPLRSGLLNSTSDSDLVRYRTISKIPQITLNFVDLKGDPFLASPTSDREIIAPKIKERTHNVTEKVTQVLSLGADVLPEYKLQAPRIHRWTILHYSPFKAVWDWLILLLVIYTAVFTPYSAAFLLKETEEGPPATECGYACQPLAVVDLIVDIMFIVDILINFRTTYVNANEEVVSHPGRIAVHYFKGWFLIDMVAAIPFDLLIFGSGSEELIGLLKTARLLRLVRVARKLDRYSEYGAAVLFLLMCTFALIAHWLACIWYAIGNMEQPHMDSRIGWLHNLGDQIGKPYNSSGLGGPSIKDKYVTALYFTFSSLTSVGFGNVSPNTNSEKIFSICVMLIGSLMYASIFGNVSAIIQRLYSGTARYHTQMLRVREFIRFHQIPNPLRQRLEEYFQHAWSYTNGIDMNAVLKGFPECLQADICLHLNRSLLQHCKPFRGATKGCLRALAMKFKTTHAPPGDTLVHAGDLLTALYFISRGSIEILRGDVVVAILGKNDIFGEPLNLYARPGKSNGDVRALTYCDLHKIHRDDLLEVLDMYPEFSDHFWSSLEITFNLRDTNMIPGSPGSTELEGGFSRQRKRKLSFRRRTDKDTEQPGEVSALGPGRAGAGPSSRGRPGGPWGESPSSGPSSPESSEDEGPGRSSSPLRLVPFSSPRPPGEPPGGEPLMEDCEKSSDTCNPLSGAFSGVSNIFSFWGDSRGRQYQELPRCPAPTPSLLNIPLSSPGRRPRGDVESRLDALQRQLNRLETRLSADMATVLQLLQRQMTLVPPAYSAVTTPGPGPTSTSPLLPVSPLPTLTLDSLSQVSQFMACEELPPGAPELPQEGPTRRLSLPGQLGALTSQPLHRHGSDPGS

SMILES	hERG current change (%, negative = inhibition) at 1uM [%]
CCc1ccc(C2C(C#N)=C(N)OC3=C2C(=O)CCC3)s1 (stereo not shown)	10.4
O=C(CSc1nc2ncc(Cl)cc2[nH]1)c1c[nH]c2ccccc12	11.8
O=C(O)c1cccc2c3c([nH]c12)CCCC3	16.3
CCOC(=O)CC1(NC(=O)C2CCC(=O)N(Cc3ccccc3OC)C2)CCCCC1 (stereo not shown)	-5.96
CC(=O)N1CCc2cc(Br)cc(S(=O)(=O)N3CCCCC3)c21	14.2
CCCNS(=O)(=O)c1cccc2cccnc12	1.61
CC(C)(C)C(=O)Nc1ccc(S(=O)(=O)N2CCC(c3nc4ccccc4[nH]3)CC2)cc1	13.9
CN(c1ccc(Cl)cc1)S(=O)(=O)c1nnc(NC(=O)C(C)(C)C)s1	7.32
Cc1cc(C)nc(NC(N)=NC2CCCCC2)n1	-0.302
O=c1c(C=Nc2cccnc2Cl)c(O)n(CCCCl)c(=O)n1C1CCCCC1	9.45
Cc1cc(Nc2ccc(O)cc2)ccc1N	9.97
Cc1ccc(S(=O)(=O)CCC(=O)N2CCN(c3ccc([N+](=O)[O-])cc3)CC2)cc1	-49.9
COc1ccccc1C(=O)COC(=O)CN1C(=O)NC2(CCCC2)C1=O	17.2
COc1ccc(S(=O)(=O)N2c3cc(Cl)ccc3Oc3nc4ccccc4nc32)cc1	12.7
COC(C(=O)N/N=C(\C)c1ccc(O)cc1)c1ccccc1 (stereo not shown)	5.44
COc1ccccc1Oc1cn[nH]c1-c1ccc(O)cc1O	5.3
COc1ccc(NC(=O)N2CCCC(C(=O)Nc3cccc(C)c3C)C2)cc1 (stereo not shown)	13.8
CC(=O)Nc1ccc(S(=O)(=O)N2CCN(C(=O)c3ncoc3-c3ccccc3F)CC2)cc1	13.2
COc1cccc(NC(=O)[C@@H](NC(=O)N2CCn3c2nc2ccccc23)C(C)C)c1	13.9
NC(=O)Cc1ccc(C(=O)c2ccc(F)cc2)s1	15.9
CCOC(=O)C1=c2s/c(=C\c3cccnc3)c(=O)n2C(N)=C(C(=O)OC)C1c1cccnc1 (stereo not shown)	9.84
O=C(N/N=C/c1coc2ccccc2c1=O)c1cccc([N+](=O)[O-])c1	16.9

SMILES	hERG current change (%, negative = inhibition) at 1uM [%]
O=C(NCc1ccco1)C1CCN(S(=O)(=O)c2ccccc2C(F)(F)F)CC1	12.6
O=C1C2CC=CCC2C(=O)N1c1n[nH]c(-c2ccccc2)n1 (stereo not shown)	-0.784
O=C1CCCN1CCCNC(=S)Nc1ccccc1Cl	6.58
Cc1cccc2c(=O)cc(C)n(CC(N)=O)c12	12.7
C/C(=N\NC(=O)c1nnn(-c2nonc2N)c1CN(C)c1ccccc1)c1ccc(O)cc1	12.7
COc1ccc(C(=O)NC(C)c2nnc(SCc3ccc(Cl)c(Cl)c3)n2C)cc1 (stereo not shown)	12
Cc1sc2ncn(CC(=O)N3CCC4(CC3)OCCO4)c(=O)c2c1C	10.9
CC1(C)N=C(N)N=C(N)N1c1ccc(Oc2ccc(Cl)cc2)c(Cl)c1.Cl	9.79
Oc1ccc(Cl)cc1Nc1nc(NCC2CCCO2)c2ccccc2n1 (stereo not shown)	17.6
CCN(CCCNC(=O)c1[nH]c(C)c(C(C)=O)c1C)c1ccccc1	6.49
COc1ccc(C(=O)N2CCCC(C(=O)c3ccccc3OC)C2)cc1OC (stereo not shown)	5.31
CCc1nnc(NC(=O)CSc2nnc3c(n2)[nH]c2ccccc23)s1	0.844
C=CCN(CC=C)Cc1c(O)ccc2c(=O)c(-c3ccccc3)coc12	4.8
COc1ccc(-c2noc(CSc3nc(-c4ccccc4)cc(=O)[nH]3)n2)cc1	8.15
Cc1cc(NS(=O)(=O)c2ccc(NC(=O)/C=C/c3ccccc3Cl)cc2)no1	14.4
COc1ccc(S(=O)(=O)N2CCN(CC(=O)Nc3cccc(OC)c3)CC2)cc1	-4.12
CC(C)(C)NC(=O)c1c(F)c(F)c(F)c(F)c1F	4.34
COc1ccc(/C=N/n2c(=O)[nH]c3c([nH]c4ccc(Cl)cc43)c2=O)cc1CN1CCCCC1	14
O=C(Cn1cnc2ccccc21)Nc1cccc(S(=O)(=O)N2CCCC2)c1	7.93
CCn1c(=O)cc(OCC(=O)NCCCN2CCC(C)CC2)c2ccccc21	-1.7
CCCCCCCCN[C@H](C)[C@@H](O)c1ccc(SC(C)C)cc1	4.1
COc1ccc(N(C(=O)c2ccc(Cl)cc2)C2=CC3CCC(C2)N3C)cc1.Cl (stereo not shown)	-76.1

SMILES	hERG current change (%, negative = inhibition) at 1uM [%]
O=C(Nc1ccc(F)cc1)c1ccc(COc2ccccc2)cc1	-8.32
COc1ccc(NC(=O)N2CCCC2C(=O)Nc2ccccc2F)cc1 (stereo not shown)	8.75
CCOc1ccccc1C(=O)NC(C(=O)Nc1ccccc1N1CCOCC1)C(C)C (stereo not shown)	-9.37
CC(=O)Nc1ccccc1NC(=O)C/C(C)=N/NC(=O)c1cccnc1	10.9
CCC(CC)c1nnc(NC(=O)/C=C/c2ccco2)s1	5.49
Cc1ccc(C(=O)OCC(=O)N(CCc2ccccc2)Cc2ccccc2)cc1S(=O)(=O)N1CCOCC1	-2.03
Cc1c(C)n(Cc2ccc(F)cc2)c2ccc(C(=O)N3CCN(c4ccccn4)CC3)cc12	14.6
CCN1CCN(C(=O)CSc2cc(=O)n(C)c3ccccc23)CC1	6.43
C=CCN1C(=O)C2(C(C(=O)OCC)=C(N)Oc3ccccc32)c2c1c1ccccc1oc2=O (stereo not shown)	6.92
CCS(=O)(=O)Nc1ccc(C(=O)CC2(O)C(=O)Nc3ccccc32)cc1 (stereo not shown)	4.37
COCC(=O)Nc1cc([N+](=O)[O-])ccc1C	10.9
N#Cc1ccc(Oc2ncccn2)cc1	12.1
O=C1OC(c2ccco2)=N/C1=C\c1ccc(-c2cccc(C(F)(F)F)c2)o1	11.7
CN(C)CCCN(C(=O)c1ccc(C(=O)c2ccccc2)cc1)c1nc2cc3c(cc2s1)OCCO3.Cl	-7.91
Cn1cnc2cc(NC(=O)c3cccs3)ccc21	1.38
Cc1sc2c(c1C)CN(C1CC(C)(C)NC(C)(C)C1)CN2C(=O)c1ccco1	-4.73
Cc1nc(SCC(=O)NCC2CCCO2)c2oc3ccccc3c2n1 (stereo not shown)	14.4
COCCN(C(C)=O)c1nnc(-c2ccccn2)s1	7.71
CNC(=S)NNC(=O)c1ccc(=O)n(Cc2ccc(Cl)cc2Cl)c1	29
O=C(O)c1cccc(COc2ccc3c(c2)CCC3)c1	12.9
Cc1ccc(F)c([C@H]2[C@@H]3C=CCC[C@@]3(C)C(=O)N2Cc2ccccc2)c1	10.3
COc1ccc(NC(=O)CCn2cccc2)c(OC)c1	14.8

SMILES	hERG current change (%, negative = inhibition) at 1uM [%]
Cc1ccc(C(=O)Nc2nnc(Cc3ccccc3)s2)cc1	5.85
C=C(C)C(=O)OCC(=O)NCc1ccccc1	8.64
CCOc1cccc2sc(Nc3nc4ccc(NC(C)=O)cc4s3)nc12	3.37
O=C(c1ccc(N2C(=O)C3CC=C(Cl)CC3C2=O)cc1)N1CCCCC1 (stereo not shown)	7.79
COc1ccccc1CC(=O)Nc1cc(OC)c(NC(=O)c2ccccc2)cc1OC	14.1
CCCn1c(N)cc(=O)n(CCC)c1=O	17.5
Cc1ccc(S(=O)(=O)NCCOC(=O)Nc2sc(=S)n(C)c2C)cc1	14.1
CN(/N=C/c1ccccc1Cl)c1ncc(Cl)cc1C(F)(F)F	10.3
CSc1n[nH]c(NCc2cccs2)n1	12.5
O=S(=O)(c1ccc(Cl)cc1)c1snnc1-c1ccccc1	7.45
COC(=O)CSc1nc(Cc2ccccc2)nc2ccccc12	11.6
Nc1nnc(SCc2ccccc2Cl)s1	8.75
CN(C)CCN(Cc1ccccc1)S(=O)(=O)c1ccc(-c2ccc(=O)[nH]n2)s1	-23.8
CCC(=O)NC(NC(=S)Nc1ccc(S(N)(=O)=O)cc1)C(Cl)(Cl)Cl (stereo not shown)	-0.792
C=CCOC(=O)C1=C[C@H](c2ccc(Br)cc2)C[C@H](OCc2ccc(CO)cc2)O1	18.4
O=C(COc1ccc(Br)cc1)Nc1ccc(C(=O)Nc2ccccc2C(=O)O)cc1	3.84
CC(=O)NS(=O)(=O)c1ccc(NC(=O)c2cccc3ccccc23)cc1	16.5
O=C(c1ccc(NS(=O)(=O)c2ccccc2)cc1)N1CCOCC1	16.5
S=C(Nc1ccc(N2CCOCC2)cc1)Nc1ccc2snnc2c1	3.86
COc1cccc(N(C(=O)Cn2nnc(-c3ccc(C)cc3)n2)C(C(=O)NC(C)(C)C)c2c[nH]c3ccccc23)c1 (stereo not shown)	5.18
CC(=O)Nc1ccc(/C=C(\C#N)C(N)=O)cc1	12.4
CCC(=O)NCCc1nc2cc(NC(=O)c3ccc(F)cc3)ccc2n1C	11.7
